Data on 85 molecules can be found in ChEMBL document CHEMBL4888484, “Replenishing the malaria drug discovery pipeline: Screening and hit evaluation of the MMV Hit Generation Library 1 (HGL1) against asexual blood stage Plasmodium falciparum ,using a nano luciferase reporter read-out” (2022).

Structures are written as SMILES. Hit rate of the full screen: of about 150,000 compounds, about 540 (0.36%) showed an effect of 50% or more. The list shows a part of the results.

For the experiment, the system named is Plasmodium falciparum. Kind of experiment: Primary screen in NF54 nanoGlo assay, in single point, at 2uM, 72h; a lower Z score goes with more inhibition. The format is functional, Erythrocyte. Particulars: timepoint 72 hour.
By % Inhibition is commonly meant the relative decrease from the control value, in per cent. Consider `CN(CCC[C@H]1CCCO1)CC(=O)N(C)c1ccccc1`, for which the “% Inhibition” value is on record as -16% and the Z score is reported as 1.86.
For `CNC(=O)CN1CC2OCCN(Cc3ccccc3)C2C1` (stereo not given), in that order: -8% and 1.12.
For `CCS(=O)(=O)N(CCN1CCCCC1)C1CN(C(=O)CC2CCCCC2)C1` the same measures were -4% and 0.51.
For `O=C1[C@@H]2CC[C@@H](C2)N1Cc1cccc(C(F)(F)F)c1`, the “% Inhibition” value stood at 4% and the Z score is recorded as -0.52.
On to `O=C(NCc1ccccc1Cl)[C@H]1CCCN(c2nc3ccccc3o2)C1`, for which the “% Inhibition” value is on record as -18% and the Z score turned out to be 2.68.
For `Cc1ccnc(-n2cccc2CN2CCOC[C@@H](CN(C)C)C2)c1` the same measures were -13% and 1.4.
For `Cc1nccc(NC(=O)N2C3CCC2CC(CCF)C3)n1` (stereo not given) the same measures were -5% and 0.79.
For `Cc1ccc(S(=O)(=O)N2CCOC[C@@H](CN(C)C)C2)c(F)c1` the same measures were -4% and 0.73.
Regarding `N#Cc1c(N)sc2c1CCN(C(=O)c1cnc3ccccn13)C2`, the “% Inhibition” value is -23% and the Z score is on record as 2.34.
`OC1=Nc2cccc3c2c(cn3Cc2cccc(F)c2)[C@@H](c2ccco2)C1`: the “% Inhibition” value is -2% and the Z score was determined as 0.36.
For `COc1ccc(NC(=O)CC[C@H]2CCCN(C(=O)c3cccc(Cl)c3F)C2)c(C)c1`, in that order: 14% and -1.59.
As to `CC1=C(C(=O)Nc2cccnc2)[C@H](c2ccc(OCc3ccccc3)cc2)n2nc(-c3ccccc3)nc2N1`, the “% Inhibition” value is 7% and the Z score is reported as -0.82.
In the case of `CN(C)C(=O)CN(C)S(=O)(=O)N(C)Cc1ccccc1`, the “% Inhibition” value is given as -2% and the Z score was found to be 0.31.
For `CCc1nc(C(=O)Nc2ncccc2OC)nn1-c1c(Cl)cccc1Cl` the same measures were -5% and 0.56.
Take `NC(=N\OCc1ccccc1)/C(N)=N/OCc1ccccc1`: the “% Inhibition” value amounted to 30% and the Z score was -3.89.
With `CCc1ncc2c(n1)CN(C(=O)C(C)(C)Oc1ccccc1OC)C2`, the “% Inhibition” value is -20% and the Z score came to 2.04.
For `O=C(c1nc2cccnc2s1)N(Cc1ccco1)C[C@H]1CCCO1`, in that order: -11% and 0.97.
For `O=C(c1cn(C(c2ccccc2)c2ccccc2)nn1)N1CCC[C@H]1CO` the same measures were 5% and -0.59.
As to `O=C1CCCN1CCCN(CCS(=O)(=O)N1CCNCC1)S(=O)(=O)c1ccc(Cl)cc1`, the “% Inhibition” value worked out at 5% and the Z score is listed as -0.59.
For `O=C(NCc1ccccc1)N1CC[C@H](Oc2ncccn2)C1`, in that order: -11% and 1.65.
For `Cn1cnnc1CNC[C@](C)(O)c1ccc(Br)cc1F` the same measures were -3% and 0.57.
Turning to `Cc1nc(NC(=O)c2cc(-c3ccccc3)on2)sc1C`, the “% Inhibition” value was found to be 10% and the Z score was -1.19.
As to `O=C(Cc1cccs1)N1C2CCC1CC(S(=O)(=O)c1ccccc1)C2` (stereo not given), the “% Inhibition” value is -16% and the Z score came out at 2.07.
For `O=C(c1cc(F)ccc1F)N(C1CCCC1)C1CC1`, in that order: -6% and 0.7.
For `O[C@@H]1C[C@H]2CN(c3ncccc3C(F)(F)F)C[C@H]2C[C@@H]1O`, in that order: -5% and 0.64.
For `COC[C@@H](c1ccnn1C)n1cc(-c2cnc(N(C)C)nc2)nn1` the same measures were 9% and -1.28.
On to `Cc1nc(-c2cccc(Br)c2)ccc1C(=O)N1CCOCC1(C)C`, for which the “% Inhibition” value is -4% and the Z score is on record as 0.8.
For `COc1ccc(NC(=O)Nc2ccc(-c3nc4ccccc4s3)cc2C)cc1`, in that order: -4% and 0.6.
For `COc1ccc(Br)cc1CC(=O)[C@H](C#N)C(=O)c1nccn1C`, the “% Inhibition” value was -6% and the Z score is 1.12.
For `Cc1noc(C)c1CN(C)C(=O)c1ccsc1` the same measures were 3% and -0.69.
For `Cc1nnc2ccc(-c3noc(Cc4cccc(Cl)c4)n3)cn12`, in that order: -14% and 2.34.
Consider `CN1C(=O)[C@]2(CCCN(C(=O)NCCc3nncn3C)C2)c2ccccc21`, for which the “% Inhibition” value was -21% and the Z score stood at 3.65.
For `COCCn1nnc2cc(S(=O)(=O)N3CCCC[C@H]3C(=O)Nc3cccc(Cl)c3C)ccc21`, in that order: -26% and 2.27.
Take `O=C(c1ccco1)N1CCC[C@H]1c1nc(-c2ccccc2)no1`: the “% Inhibition” value is reported as 0% and the Z score was determined as 0.04.
For `NC(=O)C1=C(N2CCN(c3ccccc3)CC2)c2ccccc2S1(=O)=O`, in that order: 0% and 0.
For `Cn1nncc1S(=O)(=O)N1CC[C@H](c2nc(C3CC3)no2)C1`, in that order: 31% and -3.47.
Take `CN1C(=O)c2cc(NC(=O)c3ccco3)ccc2Oc2ncccc21`: the “% Inhibition” value was 29% and the Z score is -3.32.
Turning to `CC1(C)COc2ccc(C(=O)N3C[C@H](O)C4(CC4)C3)cc21`, the “% Inhibition” value is reported as 15% and the Z score was -1.74.
Take `Cc1ccc(C2(CNC(=O)Cc3ncc[nH]3)CC2)c(C)c1`: the “% Inhibition” value is -1% and the Z score was found to be 0.25.
For `C[C@@H](C(=O)N1CCOc2ccc(CCC(=O)NCC3CC3)cc2C1)c1ccccc1`, in that order: -9% and 1.08.
For `COc1ccc(N2CCN(C(=O)C3=Cc4ccccc4OC3)CC2)cc1`, in that order: -6% and 1.
On to `CC(C)n1ccnc1CN1CCC[C@@](O)(CNC(=O)N2CCCCC2)CC1`, for which the “% Inhibition” value was -5% and the Z score was determined as 0.65.
For `O=C(NCCC1=CCCCC1)c1cncn1-c1ccc(-c2cc(C(F)(F)F)cc(C(F)(F)F)c2)cc1` the same measures were -8% and 1.1.
For `Cc1noc(C)c1CC(=O)Nc1ccc2c(c1)C[C@H](C)O2`, in that order: -12% and 1.61.
For `C=Cc1ccc(S(=O)(=O)Nc2nnc(CCCC)o2)cc1` the same measures were 0% and 0.05.
In the case of `Cc1ccccc1N1C(=O)C2CC2C1=O` (stereo not given), the “% Inhibition” value turned out to be 1% and the Z score is reported as -0.13.
For `COCCC1(C(=O)N2CCCN(C(=O)c3ccc[nH]3)CC2)CCCC1`, in that order: -10% and 0.88.
In the case of `Cc1cc(CN(CCc2ccccc2)CC2CCN(C)CC2)cc(C)c1O`, the “% Inhibition” value is on record as -6% and the Z score turned out to be 0.81.
As for `CCOc1cccc(-n2cc(-c3ccccc3)nc2NC(=O)CN(C[C@H]2CCCO2)C(=O)C2CCCC2)c1`, the “% Inhibition” value is given as -9% and the Z score was found to be 1.25.
For `Cc1ncsc1-c1nc(-c2cnccn2)no1`, in that order: -2% and 0.26.
Consider `CNC(=O)c1ccc(OC)c(CCCOc2ccccc2OC)c1`, for which the “% Inhibition” value is given as -13% and the Z score amounted to 2.07.
For `CCc1ccccc1NC(=O)N1CCN(c2cc(Oc3ccc(F)cc3C)ncn2)C[C@@H]1C`, in that order: 0% and -0.02.
For `C=CCN(C(=O)Cn1c(=O)c2c(C(=O)N3CCCCC3)cc(C)nc2n(C)c1=O)c1ccccc1` the same measures were 2% and -0.24.
For `O=C1NCc2c(NCc3cnc([C@@H]4CCCO4)s3)cccc21` the same measures were -5% and 0.62.
On to `N#Cc1c(F)cccc1Oc1cccc(-c2nnco2)c1`, for which the “% Inhibition” value is recorded as 0% and the Z score is on record as -0.04.
For `CC[C@]1(CO)CCCN1C(=O)CNC(=O)C(C)(C)C`, in that order: 4% and -0.52.
For `Cc1cc(C(=O)N2CC(c3nc(-c4ccsc4)no3)C2)no1` the same measures were 18% and -2.01.
In the case of `O=C1NCCCOc2cccc(c2)[C@@H]2NCCc3cc(ccc32)Oc2ccc(O)c1c2`, the “% Inhibition” value is recorded as -8% and the Z score is given as 0.98.
For `Cn1c(=O)n(CC2CCC(C(=O)NCc3ccccc3)CC2)c(=O)c2sccc21` (stereo not given), in that order: -18% and 1.63.
For `Cc1ccc(Cl)cc1-n1nc(O[C@@H](C)C(=O)NC2CC2)ccc1=O` the same measures were -13% and 1.99.
For `Clc1ccc(Cl)c(Cn2nnnc2C2CCOCC2)c1`, in that order: -4% and 0.61.
As for `CCC(NC(=O)NCCC1CCCCO1)c1c(C)noc1C` (stereo not given), the “% Inhibition” value is -13% and the Z score was determined as 1.2.
For `COc1cncc(CNc2ccc(Br)cc2CO)c1C`, in that order: 2% and -0.2.
Take `Cc1ccccc1-c1cc(NC(=O)c2nc(=O)[nH][nH]2)n(C)n1`: the “% Inhibition” value stood at 2% and the Z score is listed as -0.37.
As for `Cc1cc2c(N[C@H]3CCN(C(=O)c4ccccc4)C[C@@H]3O)ncnc2s1`, the “% Inhibition” value is recorded as -11% and the Z score was found to be 2.09.
For `COc1ccc(-c2nccn2Cc2nc(CC(C)C)no2)cc1OC`, in that order: -2% and 0.46.
For `COc1ccc(Cl)cc1C(=O)N1CC(COc2ccc(F)cc2)C1` the same measures were 15% and -2.33.
For `Cn1nccc1C[C@@H]1CCCN1C(=O)c1ccc2cccnc2n1`, in that order: -5% and 0.76.
Take `COc1ccc(NC2=NC(C)(C)Cc3cc(OC)c(OC)cc32)cc1`: the “% Inhibition” value is -8% and the Z score is given as 0.96.
Take `CCOCCC(=O)Nc1nnc([C@H](C)OC)s1`: the “% Inhibition” value was -10% and the Z score came out at 2.02.
For `Clc1ccc2c(Cc3nnn[nH]3)c[nH]c2c1`, the “% Inhibition” value is -9% and the Z score came to 1.65.
As to `Cc1ncnc(OCC2CCN(C(=O)c3cn(C)cn3)CC2)c1C`, the “% Inhibition” value is -16% and the Z score came to 1.84.
For `C[C@@H](CN1CCCC1)OC(=O)c1ccccc1Cl`, in that order: -9% and 1.24.
Consider `Cc1cc(NC(=O)c2cc[nH]c2C)ccc1N1CCCC1=O`, for which the “% Inhibition” value is -12% and the Z score came to 1.16.
Consider `Cc1nc([C@H]2CC(=O)N(c3ccccc3)C2)no1`, for which the “% Inhibition” value turned out to be 35% and the Z score is given as -5.13.
For `COc1cc(N2C[C@@H]3OC(=O)N(CCc4cccc(Cl)c4)[C@@H]3C2)ncn1` the same measures were 12% and -1.52.
For `Cn1c(=O)ccn(CC(=O)N2CC3(CCCC3)c3cccc(Cl)c32)c1=O` the same measures were -8% and 1.28.
For `CCS(=O)(=O)NCCNS(=O)(=O)c1cc(C)ccc1C` the same measures were -9% and 1.1.
For `CN(Cc1ccc(-n2cccn2)cc1)Cc1ncccc1C(=O)O`, the “% Inhibition” value is -10% and the Z score was found to be 1.34.
For `CCn1ncc(CN(C)c2nccc(N3CCC[C@H](O)C3)n2)c1C` the same measures were -1% and 0.1.
For `Cc1cccc(C2(C(=O)N3CC[C@H](OC(F)F)C3)CCCC2)c1` the same measures were -27% and 3.22.
For `O=C(CCOc1cccc(Cl)c1)N1CCC[C@H]1c1ncon1` the same measures were 13% and -2.27.
In the case of `C[C@@H](CN1CCC(c2[nH]ncc2-c2cccc(F)c2)CC1)c1ccccc1`, the “% Inhibition” value was determined as 5% and the Z score is listed as -0.9.
Turning to `Cc1nccn1[C@@H](C)C(=O)N(C)CCCCN1CCOCC1`, the “% Inhibition” value is reported as 0% and the Z score is 0.06.
For `CCN1CCN(Cc2cnc(OC)nc2)CC1=O` the same measures were -10% and 1.9.
